# Laboratory results: PubChem BioAssay AID485344 (National Center for Advancing Translational Sciences (NCATS), 2010)
# Out of some 340,000 compounds screened, about 6,900 (2%) were called active. Rule as the data show it: active = inhibition above about 30%; inactive = below that, where a call was filed. This is a selection; strong and weak results do not stand in their true shares. The source gives no active or inactive call for entries shown without one.
# Biological target: D(2) dopamine receptor (Homo sapiens) (UniProt P14416)
# Experiment: HTS Assay for Allosteric Antagonists of the Human D2 Dopamine Receptor: Primary Screen for Antagonists; also: 0% is about no effect
# Conditions: HEK293 TREx D2 cells, calcium flux, dopamine EC80; at 10 µM; stronger effect = higher value
# How it was run: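 Tetracycline-induced HEK293 T-REx cells expressing D2 force-coupled to calcium signalling were dye-loaded, exposed to compound for 180 s, then challenged with an EC80 of dopamine; calcium flux was followed kinetically for a further 180 s.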
# UniProt P14416, sequence (P14416 whole entry, looked up): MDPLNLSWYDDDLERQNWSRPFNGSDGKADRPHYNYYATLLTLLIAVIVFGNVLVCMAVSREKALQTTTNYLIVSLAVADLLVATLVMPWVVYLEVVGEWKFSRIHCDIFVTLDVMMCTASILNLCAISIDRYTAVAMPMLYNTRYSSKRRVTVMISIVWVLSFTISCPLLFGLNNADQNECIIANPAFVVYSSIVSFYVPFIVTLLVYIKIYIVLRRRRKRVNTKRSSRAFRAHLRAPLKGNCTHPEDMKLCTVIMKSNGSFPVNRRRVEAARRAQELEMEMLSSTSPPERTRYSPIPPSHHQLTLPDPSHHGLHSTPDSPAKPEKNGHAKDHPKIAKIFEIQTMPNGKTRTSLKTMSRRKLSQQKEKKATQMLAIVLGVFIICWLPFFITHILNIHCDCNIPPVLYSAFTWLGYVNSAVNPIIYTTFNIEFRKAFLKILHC
row,Structure (SMILES),inhibition
1,Cc1ccc(C)c(N2CCN(S(=O)(=O)c3ccc4[nH]c5c(c4c3)CCCC5)CC2)c1,14.5%
2,COc1ccc(N2CCN(c3ncccc3-c3nc(-c4ccccc4C)no3)CC2)cc1,16%
3,CCOc1ccc(C2C(=O)N(C3CCCCC3)CC(=O)N2Cc2ccc(F)cc2)cc1OC (stereo unspecified),23.1%
4,CCc1ccc(C(c2ccccc2)c2c(C)[nH]c3ccccc23)s1 (stereo unspecified),5.35%
5,Cc1cc(C)c(NC(=O)CSc2nc3ccccc3c3nc(-c4ccccc4)nn23)c(C)c1,-27.3%
6,Cc1cccc(CNC(=O)c2ccc3c(c2)N(C)CCS3)c1,-1.78%
7,COc1cccc(-c2ccc(-c3noc(-c4ccccc4F)n3)c(OC)n2)c1,active: 39.8%
8,COc1ccc(NC(=O)Cn2c(=O)n(CCCC(=O)NCc3ccccc3Cl)c(=O)c3ccccc32)c(OC)c1,24.4%
9,CNC(=O)NC(=O)CN1C(=O)NC2(CCOc3ccccc32)C1=O (stereo unspecified),active: 31.2%
10,Cc1ccccc1C(=O)Nc1cccc(NC(=O)c2ccc(C(C)(C)C)cc2)c1,0.498%
11,CCc1ccc(NC(=O)CSc2ccc(-c3sc(-c4ccccc4)nc3C)nn2)cc1,-1.53%
12,Cc1ccc(SCC(=O)OCC(=O)N(CCC#N)c2ccccc2)cc1,active: 33.2%
13,CCN(Cc1ccccc1)c1nc2c(S(=O)(=O)c3ccccc3)nnn2c2ccc(Cl)cc12,-15.2%
14,Cc1nn(C(C)C(=O)NCCc2ccccc2)c(=O)c2c1sc1ccccc12 (stereo unspecified),24.4%
15,COc1c2c(cc3oc(=O)ccc13)OC(C)(C)C=C2,active: 33.4%
16,CCOC(=O)CSc1nc2sc3c(c2c(=O)n1Cc1ccccc1)CC(C(C)C)OC3 (stereo unspecified),0.514%
17,CCC(C)NC(=O)CCCn1c(=O)c2cccn2c2ccccc21 (stereo unspecified),-9.96%
18,Cc1cc2oc(C(=O)Nc3ccc(S(=O)(=O)Nc4nccs4)cc3)cc(=O)c2cc1Cl,active: 33.8%
19,COc1ccc(C2C(=O)N(C3CCCCCC3)CC(=O)N2CCc2ccc(Cl)cc2)cc1OC (stereo unspecified),9.87%
20,NC(=O)c1c(NC(=O)Cc2ccccc2)sc2c1CCN(Cc1ccccc1)C2,active: 47.4%
21,CCC(C(=O)NC1CCCCC1)n1c(SCc2ccccc2F)nc2ccncc21 (stereo unspecified),-19.7%
22,COCCNC(=O)CN1C(=O)COc2ccc(S(=O)(=O)N3CCCCCC3)cc21,-0.734%
23,O=C(COc1ccccc1)N(Cc1cccnc1)c1nc2c(F)cc(F)cc2s1,-14.8%
24,Cc1sc(C2C(C#N)=C(N)N(c3ccc(Cl)cc3)C3=C2C(=O)CCC3)cc1CN1CCOCC1 (stereo unspecified),-1.68%

row,Structure (SMILES),inhibition
1,CC1CCN(S(=O)(=O)c2ccc3c(c2)N(CC(=O)NCCCOC(C)C)C(=O)CO3)CC1,20.7%
2,COCCNC(=O)Cn1c(-c2cccs2)cc2cc(Cl)ccc21,28.4%
3,Cc1ccsc1CN(C(=O)COc1ccccc1Cl)C1CCS(=O)(=O)C1 (stereo unspecified),-3.81%
4,Cc1ccccc1CNC(=O)CN1C(=O)CCCc2ccccc21,-6.33%
5,COc1ccc(CCNC(=O)CCCn2c(=O)c3ccccc3n(CC(=O)Nc3ccccc3C)c2=O)cc1OC,-1.88%
6,O=C(CN1CCN(Cc2ccc(F)cc2)C1=O)NCc1ccc(F)cc1,3.85%
7,COc1ccc(Cn2c(SCC(=O)N3CCN(c4ccc(F)cc4)CC3)nc3ccccc32)cc1,-3.92%
8,Cc1ccc2scc(N3CCCCC3C)c(=O)c2c1 (stereo unspecified),18.6%
9,Cc1ccc(NC2(c3ccccc3)C(=O)c3ccccc3C2=O)cc1F,23.8%
10,COCCCNC(=O)c1c(NC(=O)Cc2coc3cc(C)ccc23)sc2c1CCCC2,-1.32%
11,O=[N+]([O-])c1cc(-c2nc(-c3ccccc3)no2)ccc1NCc1ccco1,14.2%
12,Cc1ccccc1CN1C(=O)c2ccccc2S(=O)c2ccc(C(=O)N3CCOCC3)cc21 (stereo unspecified),17.7%
13,Cc1ccc(C(=O)c2oc3ccccc3c2NC(=O)COc2ccccc2C)cc1,0.195%
14,Cn1c(=O)c2cc(C(=O)NCCCN3CCN(c4ccc(F)cc4)CC3)sc2c2ccccc21,22.9%
15,CC1CCN(C(=O)Cn2cc(SCC(=O)NCc3ccc(F)cc3)c3ccccc32)CC1,10.4%
16,CCCCc1ccc(C(=O)c2c(N)c(C(=O)Nc3cccc(OC)c3)c3ccccn23)cc1,-4.54%
17,O=C(NCCCN1CCC(Cc2ccccc2)CC1)c1ccc2nc(N3CCOCC3)sc2c1,active: 48%
18,Cc1nnc(N2C(=O)c3oc4ccccc4c(=O)c3C2c2cccc(OCCC(C)C)c2)s1 (stereo unspecified),16.6%
19,CC(=O)c1ccc(Oc2ncnc3c2oc2ccccc23)cc1,7.31%
20,O=C(NCCC(=O)N(Cc1ccco1)Cc1cccs1)c1ccc(Br)cc1,active: 41.3%
21,COc1ccc(NC(=O)CCS(=O)(=O)c2cc3c4c(c2)CCN4C(=O)CC3)c(OC)c1,-12.4%
22,COc1ccc(C(=O)c2c(N)c(C(=O)Nc3ccccc3Cl)c3ccccn23)cc1,-4.64%
23,O=C(COc1ccc2oc3c(c2c1)CCCC3)Nc1cccc(Br)c1,-8.96%
24,CCc1ccc(NC(=O)CCc2c(C)nn(-c3ccc(N4CCCC4)nn3)c2C)cc1,7.85%

row,Structure (SMILES),inhibition
1,COc1ccc(-c2nc3ccccc3o2)cc1NC(=O)COc1cc(C)cc(C)c1,5.11%
2,Cc1oc2c(c1C(=O)Nc1ccc(OC(F)(F)F)cc1)C1=NCCN1C=N2,11.9%
3,COc1ccc(NS(=O)(=O)c2cnc(N)nc2)cc1Cl,3.63%
4,O=c1c2c3c(sc2nc2n1CCCCC2)CCCCC3,active: 56.7%
5,O=C(c1ccc2c(=O)n(CCc3ccccc3)c(=O)[nH]c2c1)N1CCN(c2ccc(F)cc2)CC1,11%
6,Cc1nn(-c2ccccc2)c2c1N(CC(=O)N1CCN(c3cccc(Cl)c3)CC1)C(=O)CS2,3.09%
7,COc1ccc(Cn2c(=O)c3oc4ccccc4c3n(Cc3cccc(C(F)(F)F)c3)c2=O)cc1,1.58%
8,Cc1cc(C)c(NC(=O)CSCc2c(C)noc2C)c(C)c1,active: 49.1%
9,CCOc1ccc(C(=O)Nc2cccc(-c3nc4cc(Cl)cc(Cl)c4o3)c2)cc1,-6.36%
10,COc1cccc(N2CC(NC(=O)c3ccco3)CC2=O)c1 (stereo unspecified),26.1%
11,CCc1nn(CC(=O)NCCCN(CC(C)C)CC(C)C)c(=O)c2cc3sc(C)cc3n12,9.4%
12,CCCCN(C)C(=O)C1CCCN(c2ncnc3onc(C)c23)C1 (stereo unspecified),0.922%
13,COc1ccccc1N1CCN(C(=O)Cn2cnc3onc(-c4ccc(F)cc4)c3c2=O)CC1,-1.23%
14,Cc1ccc(C(=O)Nc2cc3nn(-c4ccccc4)nc3cc2Cl)c(C)c1,3.08%
15,CC(C)c1ccc(CN(Cc2ccco2)c2cnc(S(C)(=O)=O)nc2C(=O)Nc2ccc(F)cc2)cc1,-26.4%
16,CCOc1ccccc1N(CC(=O)NCCSc1ccccc1)S(=O)(=O)c1ccccc1,-0.683%
17,COc1ccccc1Cc1nc2ccccc2nc1SCC(=O)N(C)c1ccc(F)cc1,5.03%
18,Cc1nnc(N2CCC(C(=O)NCCc3ccccc3Cl)CC2)c2nn(-c3ccccc3)c(C)c12,0.776%
19,Cc1cccc(N2CCN(C(=O)Nc3cn(CC(C)C)c(=O)c4ccccc34)CC2)c1C,5.99%
20,Cc1ccccc1-c1nc2cc(NC(=O)Cc3ccc(Cl)cc3)ccc2o1,2.01%
21,CCCCCCOc1ccc(C2C(=O)N(C3CCCCC3)CC(=O)N2CCC)cc1 (stereo unspecified),9.18%
22,CCOc1ccccc1CNC(=O)C1CCN(c2nn3cc(-c4ccc(F)cc4)nc3s2)CC1,-7.58%
23,Cc1cccc(N2CCN(C(=O)c3cccc(-n4c(C)nc5cccnc54)c3)CC2)c1C,-3.57%
24,COc1cc(CNCc2cc(OC)c(OC)c(OC)c2)cc(OC)c1,active: 30.1%

row,Structure (SMILES),inhibition
1,Cc1cccc(N2CCN(C(=O)c3cn(CC(C)C)c(=O)c4c3c3ccccc3n4C)CC2)c1C,-4.34%
2,COc1cccc(N2CC(NC(=O)CCCc3ccccc3)CC2=O)c1 (stereo unspecified),12.3%
3,Cc1ccc(NS(=O)(=O)c2c(C)[nH]c(=O)[nH]c2=O)c(C)c1,-9.14%
4,COc1ccc(-c2ccc(NS(=O)(=O)c3ccc(C(C)=O)cc3)cc2)nn1,-3.5%
5,Cc1ccc(-c2noc(CNC(=O)c3ccc(Br)o3)n2)cc1,-6.39%
6,CC12CN3CC(C)(CN(C1)C3c1ccc(Br)cc1O)C2 (stereo unspecified),active: 36.1%
7,CCOC(=O)C1CCCN(C(=O)c2cc3c(=O)[nH]c4ccc(C)cc4c3s2)C1 (stereo unspecified),-14.3%
8,CN(Cc1ccccc1)S(=O)(=O)c1cc(Br)cc2c1N(C(=O)C1CC1)CC2,2.83%
9,CCC(C(=O)Nc1c(C)cc(C)cc1C)n1c(=O)c(-c2ccccc2NC(C)=O)nc2ccccc21 (stereo unspecified),1.61%
10,COc1ccc(NC(=O)CSc2nnc(NC(=O)Nc3ccc(OC)cc3)s2)cc1,-22.8%
11,CCCCN(C)CCCNC(=O)c1cc(-c2ccc(Br)s2)nc2ccccc12,9.88%
12,Cc1cccc(NC(=O)CCCCCn2c(=O)[nH]c3ccsc3c2=O)c1,-3.09%
13,CCOc1ccc(CCNC(=O)CCCn2nc(C)c3sc4ccccc4c3c2=O)cc1,5.19%
14,COc1cccc(Nc2sc(C(=O)c3ccc(F)cc3)c(N)c2C(=O)NCc2ccc(Cl)cc2)c1,5.7%
15,CC(C)c1ccc(S(=O)(=O)c2nnn3c2nc(N2CCCCC2)c2sccc23)cc1,-15.8%
16,COc1cccc(C(=O)Nc2ccc(-c3cc(C(F)(F)F)nn3-c3ccccc3)cc2)c1,-5.32%
17,CCOc1ccccc1CNS(=O)(=O)c1ccc2[nH]c(=O)ccc2c1,-19.7%
18,CC(C)Cc1ccc(S(=O)(=O)Nc2cc3c(cc2N2CCOCC2)n(C)c(=O)c(=O)n3C)cc1,1.28%
19,Cc1ccc(C)c(Cn2c(-c3cccs3)nc3ccccc32)c1,-6.8%
20,COc1ccc(NC(=O)CC2C(=O)N(c3cccc(C)c3)C(=O)N2C2CCCCC2)cc1 (stereo unspecified),-2.63%
21,COc1ccc(-c2nnc(SCC(=O)Nc3ccc(C(C)C)cc3)nc2-c2ccc(OC)c(OC)c2)cc1OC,-2.89%
22,O=C(NC(Cc1ccc2c(c1)OCO2)C(=O)N1CCCC1C(=O)O)c1ccccc1 (stereo unspecified),active: 34.1%
23,Cc1cc(C)cc(S(=O)(=O)c2cn(C)c3cc(N4CCCC4)c(F)cc3c2=O)c1,1.66%
24,CCc1ccc(NC(=O)CSC2=Nc3ccccc3C3=NC(CCC(=O)NCc4ccco4)C(=O)N23)cc1 (stereo unspecified),12%
